# Reference: PubChem BioAssay AID1452 (National Center for Advancing Translational Sciences (NCATS), 2008)
# The whole screen tested about 150,000 compounds, of which about 190 (0.13%) were called active. Another 2% or so got no clear call; they are omitted. Calls come from the whole dose curve; as a rule, active = well fitted inhibition curve with a large enough effect; inconclusive = small, poorly fitted or top-dose-only effect; inactive = flat fitted curve, though single readings scatter. This is a selection; strong and weak results do not stand in their true shares.
# Target: Polyunsaturated fatty acid lipoxygenase ALOX12 (Homo sapiens) (UniProt P18054)
# Assay: qHTS Assay for Inhibitors of 12-hLO (12-human lipoxygenase); note: nearly all actives have a fitted effect of over 55% in size
# Details: purified 12-hLO, xylenol orange hydroperoxide absorbance; series mostly up to 57.1 µM; activity change, negative = inhibition: at the top concentration
# Excerpt: Assay Provider: Holman, T.R., University of California, Santa Cruz Screening Center PI: Austin, C.P. Screening Center: NIH Chemical Genomics Center [NCGC] Human lipoxygenase 12hLO is a member of the closely related lipoxygenase family of enzymes which catalyze the site-specific oxidation of arachidonic acid to various hormone precursor molecules and as such is a candidate for drug development in a variety of disease areas, such as cancer and inflammation. Inhibition of 12hLO activity was screened by utilizing arachidonic acid as a substrate. The extent of hydroperoxide product formation was measured by a secondary chromogenic reaction in which xylenol orange (XO, Sigma-Aldrich, cat. number 39,818-7) reacts with the ferric ions produced from the reaction between the hydroperoxide and ferrous ions. The Fe(III)-XO complex is characterized with red-shifted absorbance at 560 nm. A purified preparation of human 12hLO was supplied by Professor Ted Holman, University of California, Santa Cruz.
# Assay Protocol: Buffer: 25 mM Hepes pH 7.0, 0.01% Triton X-100. Reagents/Controls: Buffer in columns 3 and 4 as negative control (no enzyme). Substrate solution: 40 uM arachidonic acid (Sigma-Aldrich, St. Louis, MO) final concentration dispensed throughout the plate. Enzyme: 150 nM 12hLO final concentration in columns 1, 2, 5-48. Column 1 is neutral (100% activity). Column 2 contained pin-transferred titration of NDGA (nordihidroguaiaretic acid, Sigma-Aldrich, N 5023, top concentration 20 mM in DMSO, then 1:3 dilution in duplicate). (Dilution factor: 23 nL into 4 uL.) Chromogenic detection reagent (divalent iron/xylenol orange, Fe-XO): 200 uM xylenol orange plus 300 uM ferrous ammonium sulfate prepared freshly in 50 mM sulfuric acid. Assay Steps: Three uL of enzyme were dispensed to 1536-well Greiner black clear bottom plates. Compounds and controls (23 nL) were transferred via Kalypsys PinTool. The plates were incubated for 15 min at room temperature, and then 1 uL of substrate solution was added to start the reaction. After room temperature incubation for 30 minutes, 4 uL of Fe-XO solution was added to each well and the plates were incubated for 30 min. The absorbance at 405 and 573 nm were measured using ViewLux (Perkin-Elmer) High-throughput CCD imager and absorbance protocol settings. The 573-to-405 absorbance ratio was used to compute reaction progress.
# % is set by controls: 0 for no effect and ±100 for the full control effect; potency is the fitted concentration of half-maximal effect.
# Chain of UniProt P18054 (P18054 whole entry, looked up): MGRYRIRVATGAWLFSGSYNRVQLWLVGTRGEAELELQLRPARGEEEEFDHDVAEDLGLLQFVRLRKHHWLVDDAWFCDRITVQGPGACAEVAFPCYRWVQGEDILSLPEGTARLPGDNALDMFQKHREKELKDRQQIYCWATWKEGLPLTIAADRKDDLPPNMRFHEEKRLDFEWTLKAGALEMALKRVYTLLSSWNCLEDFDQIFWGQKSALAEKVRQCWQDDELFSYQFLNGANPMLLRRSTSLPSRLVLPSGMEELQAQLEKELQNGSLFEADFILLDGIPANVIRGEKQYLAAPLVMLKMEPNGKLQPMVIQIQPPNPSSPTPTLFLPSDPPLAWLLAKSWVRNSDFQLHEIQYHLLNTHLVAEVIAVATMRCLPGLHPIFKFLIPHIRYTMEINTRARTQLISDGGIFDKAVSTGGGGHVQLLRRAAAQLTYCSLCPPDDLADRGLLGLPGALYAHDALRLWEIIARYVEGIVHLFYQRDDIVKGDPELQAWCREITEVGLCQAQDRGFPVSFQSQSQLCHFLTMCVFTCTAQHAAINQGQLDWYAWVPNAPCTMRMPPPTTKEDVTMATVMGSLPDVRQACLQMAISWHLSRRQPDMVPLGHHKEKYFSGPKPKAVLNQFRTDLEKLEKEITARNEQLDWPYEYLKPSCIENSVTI
Structure (SMILES),Potency,"activity change, negative = inhibition"
CC[C@H]1C(=O)OC[C@H]1Cc1cncn1C,inactive,–
c1ccc2ncccc2c1,–,inactive: 0.972%
Oc1cccc2cccnc12,inactive,–
CN(C)C(=O)C(CCN1CCC(O)(c2ccc(Cl)cc2)CC1)(c1ccccc1)c1ccccc1,inactive,–
CC(C)[C@@]1(NC(=O)[C@@H]2C[C@@H]3c4cccc5[nH]cc(c45)C[C@H]3N(C)C2)O[C@@]2(O)[C@@H]3CCCN3C(=O)[C@H](Cc3ccccc3)N2C1=O,–,inactive: -7.8%
CC(C)[C@@]1(NC(=O)[C@@H]2C[C@H]3c4cccc5[nH]cc(c45)C[C@@H]3N(C)C2)O[C@@]2(O)[C@H]3CCCN3C(=O)[C@H](Cc3ccccc3)N2C1=O,–,inactive: -10.1%
C[N+](C)(C)CC#CCN1CCCC1=O,–,inactive: -6%
CCCCC(=O)N/N=C/c1c(O)n(CC)c(=S)n(CC)c1=O,–,inactive: -1.13%
CC[C@@H]1C(=O)OC[C@@H]1Cc1cncn1C,inactive,–
O=C1CC(c2ccc(O)cc2)Oc2cc(O)cc(O)c21 (stereo not given),inactive,–
CNC(C)[C@H](O)c1ccccc1 (stereo not given in full),–,inactive: 1.29%
COC(=O)C1=C(C)NC(C)=C(C(=O)OC)C1c1ccccc1[N+](=O)[O-],inactive,–
CCC1C(=O)OCC1Cc1cncn1C (stereo not given),–,inactive: -5.51%
CCC1C(=O)OC[C@H]1Cc1cncn1C (stereo not given in full),–,inactive: -4.38%
COc1ccc2c(c[n+](C)c3c4cc5c(cc4ccc23)OCO5)c1OC,–,inactive: -14.7%
C[C@]12N[C@H](Cc3ccccc31)c1ccccc12,–,inactive: 1.66%
CC1CCCCN1CC(=O)c1ccc2cc[nH]c2c1 (stereo not given),–,inactive: 46.8%
Cc1ccc(/C=C2\C(=O)NC(=O)N(CCc3ccc(F)cc3)C2=O)o1,–,inactive: -20.5%
CCCCCCCCCCCCCCCC[n+]1ccccc1,inactive,–
O=C1C2(Cl)C3(Cl)C4(Cl)C(Cl)(Cl)C5(Cl)C3(Cl)C1(Cl)C5(Cl)C24Cl (stereo not given),–,inactive: -20%
CCCCC/C=C\C/C=C\C/C=C\C/C=C\CCCC(=O)NCCc1ccc(O)c(O)c1,–,inactive: -22.4%
CC(C)[C@@]1(NC(=O)[C@@H]2C[C@H]3c4cccc5[nH]cc(c45)C[C@@H]3N(C)C2)O[C@]2(O)[C@H]3CCCN3C(=O)[C@H](Cc3ccccc3)N2C1=O,–,inactive: 1.74% [at 25.6 µM]
C[C@H]1O[C@H]1P(=O)(O)O,inactive,–
C[C@]12N[C@@H](Cc3ccccc31)c1ccccc12,inactive,–
Cc1cc(C)cc(N2C(=O)NC(=O)/C(=C/c3cccn3-c3ccc(Cl)cc3)C2=O)c1,–,inactive: -3.22%
c1ccc2c(c1)Nc1ccccc1S2,active: 14.1 µM,–
CCCCC/C=C\C/C=C\C/C=C\C/C=C\CCCCCC(=O)NCCO,inactive,–
Cc1ccccc1,–,inactive: -2.71%
CNC(C)[C@@H](O)c1ccccc1 (stereo not given in full),–,inactive: 3.94%
CC1OC1P(=O)(O)O (stereo not given),–,inactive: 0.446%
